Test results taken from the supplement of paper PMC8277577.

Biological target: SARS-CoV-2 Wuhan-Hu-1 spike receptor-binding domain
Assay: ELISA binding EC50; higher = weaker binding; ELISA of recombinant human antibody on coated antigen, from 10 µg/ml in fourfold dilutions; four-parameter fit.

B1: C982 (protein)
chain 1: EVQLVESGGGLVQPGGSLRLSCAASGFTFSNYDMHWVRQPTGGGLEWVSAIGTAGDTYYLASVKGRFTISRENAKNSLSLQMNSLRAGDTAVYYCVRGDTLVQGVIKAYYYYFMDVWGQGITVTVSS
chain 2: DIQMTQSPSSLSASVGDRVTITCRASQNISRYLNWYQQKPGKAPRLLIYAASTLQSGVPSRFSASGSGTDFTLTITNLQPEDFAVYYCQQTYVMPPYTLAQGTKLEIK
- ELISA binding EC50: 2.56 ng/mL

B2: C983 (protein)
chain 1: QVQLVESGGGVVRPGRSLRLSCAASGFTFSKYGMHWVRQAPGKGLECVASIAYDGSDDSYADSVKGRFIISRDNSKNTLYLQMNSLRAADTAVYYCAKVLGSYCSASSCHGQRPDYWGQGTLVTVSS
chain 2: DIQMTQSPSSLSAYVGDRVTITCQASQDISNHLNWYQQKPGKAPNLLIYDASNLETGVPSRFSGSGSGTDFSFTISSLQPEDIATYYCQQYDNVPPWTFGQGTKVEIK
- ELISA binding EC50: 2.11 ng/mL

B3: C984 (protein)
chain 1: QVQLVQSGTEVKKPGDSVQVSCKTSGYSFTGYYIHWVRQAPGQGLEWMGRINPNSGGTNYAQKFQGRVIMTRDTSITTAFMELTRLRYDDTAVYFCAREPIEGVIGGMIVNYYYMDVWGRGTTVTVSS
chain 2: QSALTQPASVSGSPGQSITISCTGTSSDVGGYYYVSWYQQHPGKAPKLMIYDVSSRPSGVSNRFSGSKSGNTASLTISGLQAEDEADYYCSSYTSSNTLVVFGGGTKLTVL
- ELISA binding EC50: 2.76 ng/mL

B4: C985 (protein)
chain 1: QVQLVQSGAEVKKPGASVKVSCKASGYIFTGYYMHWVRQAPGQGLEWMGRINPNSGGSRYAEKFQGRVTMTRDTSIITAFMELRGLKSDDTAVYYCAREPIEAVPAGIIVNYYYMDVWGNGTTVTVSS
chain 2: B3 chain 2 with Y33N, S54T, N62D, N71T, Y93F, S96A, N97F
- ELISA binding EC50: 3.67 ng/mL

B5: C986 (protein)
chain 1: EVQLVQSGAEVKKPGETLKISCKGSGDSFSNYWIGWVRQSPGKGLEWMAIVYPGDSDARYSPSFQGQVTISADKSVTTAYLKWSSLKASDTAIYYCVRGLPVDWYFDLWGRGTLVTVSS
chain 2: QSVLTQPPSVSGAPEQRVTISCTGSSSNIGAGHDVHWYQQLPGTAPKLLIYNNNNRPSGVPDRFSGSKSGASASLAISGLQAEDEAEYYCQSYDKSLSVLYVLGTGTKVTV
- ELISA binding EC50: 3.36 ng/mL

B6: C987 (protein)
chain 1: QVQLQESGPGLVKPSETLSLTCNVSGDIINKYYWSWIRQSPGKGLEWIGYIYYSGTTYYNPSLKSRVTMSVGTSKQQFSLRLTSVTAADTAVYYCARMLSTEWSFNWFDPWGPGTLVTVSS
chain 2: SYELTQPPSVSVSPGQAASITCSGDKLGDKFACWYQQKPGQSPVLVIYQNDKRPTGIPERFSGSNSGNTATLTISGTQAMDEADYFCQAWDSTSASVFGTGTKVTVL
- ELISA binding EC50: 3.11 ng/mL

B7: C990 (protein)
chain 1: EVQLVESGGGLVRPGGSLRLSCAASGFTVGSNFMSWVRQAPGKGLEWVSLIYSGGGTHYAESVKGRFTISRDKSKNTLYLQMNSLRAEDTAVYYCANQGYYYYMDVWGKGTTVTVS
chain 2: QSALTQPASVSGSPGQSITISCTGTSSDVGAYNYVSWHQHHPGKAPKLIIYDVSNRPSGVSNRFSGSKSGNTASLTISGLQAEDEADYYCTSYTNTTTPWVFGGGTKLTVL
- ELISA binding EC50: 1.85 ng/mL

B8: C991 (protein)
chain 1: QVQLQESGPGLVKPSQTLSLTCTVSGGSISSGGYFWSWIRQHPGKGLEWLGYNYYTGTPHYNPSLKSRLVISIDTSKNQFSLKLSSVTAADTAVYYCARGDTFGRGYYFDYWGQGTLVTVSS
chain 2: SYELTQPPSVSVAPGQTARITCGGNNIGSKSVHWYQQKPGQAPVMVVYDDSDRPSGIPERFSGSNSGDTATLTISRVEAGDEADYSCQVWDRSSDHPWVFGGGTKLTVL
- ELISA binding EC50: 3.46 ng/mL

B9: C992 (protein)
chain 1: QVQLQESGPGLVKPSQTLSLTCTVSGGSISNGGYFWTWIRQHPVKGLEWIGYIYYSGSPHYNPSLKSRLSISLDTFKNQFSLNLSSVTAADTAVYYCARGDTFGRGYYFDFWGQGTLVTVSS
chain 2: B8 chain 2 with S29T, K30N, V32M, M45L, Y48F, D68N, S86H, H96R
- ELISA binding EC50: 3.24 ng/mL

B10: C843 (protein)
chain 1: QVQLVESGGGVVQPGRSLRLSCAASGFTFSRYAMHWVRQAPGKGLEWVAVISYDGSNKYYATSLKGRCTISRDNSKNTLYLQMNSLRAEDTAVYFCAKQIGEYCSGGNCYQGSLDYWGQGTLVTVSS
chain 2: DIQMTQSPSSLSASVGDRVTITCQASQDISNYLNWYQQKPGKAPKLLIYDASDLETGVPSTFSGSGSGTDFTLTISSLQPEDFATYYCQQYDIVPFTFGPGTKVDIK
- ELISA binding EC50: 1.34 ng/mL

B11: C993 (protein)
chain 1: EVQLLESGGGLVQPGGSLRLSCAASGFPFSIYAMSWVRQAPGKGLEWVSGMRGTTGTTYYADSVKGRFAISRDNSKNMLHLQMNSLRAEDTAVYYCAKSDHGDYVIGAFDIWGQGTMVTVSS
chain 2: QSALTQPPSASGSPGQSVTISCTGTSGDVGGYNYVSWYQQHPGKAPKLMIYEVSKRPSGVPDRFSGSKSGNTASLTVSGLQAEDEADYYCNSYAGSNNWVFGGGTKLTVL
- ELISA binding EC50: 2.29 ng/mL

B12: C994 (protein)
chain 1: QVQLQESGPGLVKPSGTLSLTCAVSGVSISNTNWWNWVRQPPGKGLEWIGEIYHTGSARYNPSLRSRVTISVDKSKNQFSLRLNSATAADTAIYYCARAQTPEFGELLYWGQGALVTVSS
chain 2: DIQMTQSPSSLSASVGDRVTITCRASQSITDHLNWYQQKPGKAPKLLIYAASSLQTGVPSRFSGSGSETDFTLTISTLQPEDFATYYCQQSYGPPTYSFGQGTKLEIK
- ELISA binding EC50: 2.09 ng/mL

B13: C995 (protein)
chain 1: EVQLVESGGGLIQPGRSLRLSCTASGFSVGDYAMSWFRQAPGKGLEWVGFLRNQHYGGTAEYAASVKGRFSISTDASKNIVYLQMDSLKTEDTAVYYCARNDRYIVIVPAEMLYWGQGTLVTVSS
chain 2: EIVMTQSPATLSVSPGERATLSCRATESVYSNLAWYQQKPGQAPRLLMYDASTRAPGIPARFSGSGSGTEFTLTISSLQSEDFATYYCQQYSNWPPITFGQGTRLEIK
- ELISA binding EC50: 3.79 ng/mL

B14: C996 (protein)
chain 1: EVQLVESGGGLVQPGGSLRLSCVASGFTSTNYDMHWVRQAPGRGLQWVSSIGTAGDTYYPGSVRGRFTISRENAKNSLDLQMNSLRVGDTAVYYCARGQRGYYDRSGYYWGWRAFDIWGQGTMVTVSS
chain 2: SYELTQPPSVSVAPGQTARITCGGNNIGNKSVYWYQQKPGQAPVLVVYDDSGRPSGIPERFSGSNSANTATLTISRVEAGDEADYYCQVWDNNSDQFGGGTKLTVL
- ELISA binding EC50: 3.07 ng/mL

B15: C997 (protein)
chain 1: EVQLLESGGGLVQPGGSLRLSCAASGFTFSKDAMSWVRQAPGKGLEWVSTVTGSGTNTYYADSVKGRFTISRDNSNNTLYLQMNSLRAEDTAVYYCANHPLGAAEGYYYYYMDVWGKGTTVTVSS
chain 2: EIVLTQSPGTLSLSPGERGTLSCRASQRVPSSQLAWYQQKSGQAPRLLIYGASSRASGIPDRFSGSGSGTDFTLNISRLEPEDFAVYYCQQYGSLRALTFGGGTKVEIK
- ELISA binding EC50: 3.49 ng/mL

B16: C998 (protein)
chain 1: QVQLVQSGAEVKKPGASVKVSCKTSGYTFISYYIHWVRQAPGQGLEWMGIINPDGDNTNYAQKFQGRVTMTRDTSTSTVYMELSSLRFEDTAVYYCARGGAIPALRTAFDIWGQGTMVTVSS
chain 2: DIQMTQSPSTLSASVGDRVTITCRASQSISNWLAWYQQKPGKAPKLLIYKASSLESGVPSRFSGSGSGTEFTLTISSLQPDDFATYYCQEYNSYYFGQGTKLEIK
- ELISA binding EC50: 2.51 ng/mL

B17: C999 (protein)
chain 1: QVQLVQSGAEVRRPGASVKVSCKASGYTLTHYYIHWVRQAPGQGLEWVGIINPDGDNTNYAQKFQGRVTMTRDTSTSTVYMELSSLRSEDTAIFYCARGGAIPALRSAFDIWGQGTMVTVSS
chain 2: B16 chain 2 with S30N, S53T, E90Q, Y95F
- ELISA binding EC50: 2.68 ng/mL

B18: C1000 (protein)
chain 1: QVQLQESGPGLVKPSQTLSLSCTVSGGSISSDDYYWSWIRQPPGKGLEWIGYIYYSGSTYYNSSLKSRVSISVDTSKNQFSLKLSSVTAADTAVYYCARWKRWLQFLYFDYWGQGTLVTVSS
chain 2: QSALTQPRSVSGSPGQSVTISCTGTSSDVGGYSFVSWYQQHPGKAPKVLIYDVDKRPSGVPDRLSGSKSGNTASLTISGLQAEDEADYYCCSYAGSYTLIFGGGTKLTVL
- ELISA binding EC50: 3.2 ng/mL

B19: C1001 (protein)
chain 1: QVQLQESGPGLVKPSQTLSLTCTVSGGSISSGDYYWTWIRQPPGKGLEWIGYIFYSGITYYSPSLKSRLTMSIDTSKSQFSLNLSSVTAADTAVYYCARWKRLLQSLHFDYWGQGILVTVSS
chain 2: QSALTQPRSVSGSPGQSVTISCTGTSSDVGSYDYVSWYQQHPGKAPKVMIYGVDERPSGVPHRFSGSKSGNTASLTISGLQADDEADYFCCFYAGSYTLLFGGGTKVTVL
- ELISA binding EC50: 3.23 ng/mL

Positions count from the first letter of the chain named. Recombinant human monoclonal antibodies (heavy:light variable regions). ELISA EC50 on the named antigen, from 10 µg/ml down; lower = stronger. No active / inactive call.
